For orientation: IC50 means the midpoint of a concentration-inhibition curve. As usually defined, the Kd is the concentration at which binding is half-saturated. The low end stands for higher affinity, the high end for lower affinity. The term koff denotes the rate constant with which the complex falls apart. Read a high koff as fast dissociation. The kon is the rate constant with which the complex forms. A high value points to faster complex formation.

From US20260184782A1 (TWIST BIOSCIENCE, published 2026) come the findings set out here.

Like-named read-outs stand apart in the source and are kept apart here.

Experiment [1] addresses T1, TIGIT (T cell immunoreceptor with Ig and ITIM domains) (UniProt Q495A1 22-141, limits assumed).
T1 sequence (looked up): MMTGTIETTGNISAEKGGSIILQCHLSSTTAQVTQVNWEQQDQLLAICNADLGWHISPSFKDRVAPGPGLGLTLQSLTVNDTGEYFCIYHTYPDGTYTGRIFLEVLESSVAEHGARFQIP
Put plainly: competition ELISA: immobilised TIGIT, VHH-Fc 0.05-100 nM, then biotin-CD155, streptavidin-HRP. How it is done:
Thermostability and competition analysis of the VHH-Fc TIGIT clones is seen in FIG. 9 and Table 6. For the competition assays, 4 μg/mL TIGIT was immobilized and incubated with 0.05-100 nM VHH-Fc followed by incubation with 2 μg/mL biotin-CD155 and 1:5000 streptavidin-HRP.
A general note: In an ELISA, binding on a coated surface is turned into a signal by an enzyme label.

Experiment [2] has as its target T1, TIGIT (T cell immunoreceptor with Ig …). Put plainly: SPR (Carterra), VHH-Fc. The text has this:
(§1) The Carterra SPR system was used to assess binding affinity and affinity distribution for VHH-Fc variants. […] Table 5A provides specific values for the VHH-Fc clones for ELISA, Protein A (mg/ml), and KD (nM). FIG. 7A and FIG. 7B depict TIGIT affinity distribution for the VHH libraries, over the 20-4000 affinity threshold (FIG. 7A; monovalent KD) and the 20-1000 affinity threshold (FIG. 7B; monovalent KD).

Experiment [3] shares this target. The experiment can be described thus: SPR (Carterra), VHH-Fc.
Excerpt: as §1
This is another data set of the same source.

Experiment [4] has as its target T2, TIGIT (UniProt Q495A1 22-141, limits assumed).
T2 construct: construct not described; also called T cell immunoreceptor with Ig and ITIM domains
T2 sequence (looked up): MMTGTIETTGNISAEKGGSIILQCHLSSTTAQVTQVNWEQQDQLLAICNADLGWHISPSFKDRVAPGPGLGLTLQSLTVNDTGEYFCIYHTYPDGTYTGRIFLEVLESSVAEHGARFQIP
Put plainly: ELISA.

Experiment [5] addresses T2, TIGIT. Put plainly: Carterra SPR, VHH-Fc.
In experiment [6] the target is T2, TIGIT. Put plainly: TIGIT:CD155 blockade ELISA, biotin-CD155 as competitor.
The target in experiment [7] is T3, TIGIT (UniProt Q495A1 22-141, limits assumed).
T3 construct: also called T cell immunoreceptor with Ig and ITIM domains; hTIGIT
T3 sequence (looked up): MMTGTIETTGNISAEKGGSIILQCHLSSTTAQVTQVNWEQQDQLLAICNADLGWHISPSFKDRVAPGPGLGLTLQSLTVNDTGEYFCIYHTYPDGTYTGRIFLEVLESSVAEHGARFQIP
Put plainly: ELISA.

For experiment [8], the target named is T3, TIGIT. Put plainly: SPR (Carterra), VHH-Fc.
Experiment [9] concerns the target T3, TIGIT. Put plainly: TIGIT:CD155 blockade assay, competitor CD155.

B1: TIGIT-30-30 (Fc fusion)
chain: EVQLVESGGGLVQAGGSLRLSCAASGGTFSGRGMGWFRQAPGKEREWVSSVYIFGGSTYYADSVKGRFTISADNAKNTVYLQMNSLKPEDTAVYYCANSNKPKFDWGQGTQVTVSSGGGGS[in this place human IgG1 Fc with C220S (EU numbers)]
notes: VHH-Fc
Consider B1, for which the IC50 in experiment [1] turned out to be 5.67 nM. Besides, the Kd in experiment [2] and in experiment [3] was 23 nM in each case.

B2: TIGIT-30-30 VHH-Fc (Fc fusion)
chain: EVQLVESGGGLVQAGGSLRLSCAASGGTFSGRGMGWFRQAPGKEREWVSSVYIFGGSTYYADSVKGRFTISADNAKNTVYLQMNSLKPEDTAVYYCANSNKPKFDWGQGTQVTVSSGGGGS[in this place human IgG1 Fc with C220S (EU numbers)]
On to B2, for which the ELISA with TIGIT [4] worked out at 8. In the experiment with TIGIT [5], this molecule yielded a Kd of 23 nM, a koff of 0.008 s⁻¹ and a kon of 350000 M⁻¹ s⁻¹. The same molecule returned an IC50 with TIGIT [6] of 5.7 nM.

B3: TIGIT-31-56 (Fc fusion)
chain: EVQLVESGGGLVQPGGSLRLSCAASGRIFRRNSMGWFRQAPGKEREFVAVITRSGGGEVTTYADSVKGRFTINADNSKNTAYLQMNSLKPEDTAVYYCAMSSVTRGSSDWGQGTLVTVSTGGGGS[in this place human IgG1 Fc with C220S (EU numbers)]
notes: VHH-Fc
B3 showed an IC50 in [1] of 1.52 nM. In addition, the equilibrium dissociation constant (Kd) in experiment [2] and in [3] was 46 nM in each case.

B4: TIGIT-31-56 (VHH-Fc) (Fc fusion)
chain: EVQLVESGGGLVQPGGSLRLSCAASGRIFRRNSMGWFRQAPGKEREFVAVITRSGGGEVTTYADSVKGRFTINADNSKNTAYLQMNSLKPEDTAVYYCAMSSVTRGSSDWGQGTLVTVSTGGGGS[in this place human IgG1 Fc with C220S (EU numbers)]
As for B4, in the experiment with TIGIT [7], the ELISA came out at 11.7. Further, in the experiment with TIGIT [8], binding was characterised by a dissociation constant (Kd) of 46 nM, the koff stood at 0.021 s⁻¹ and the kon is 460000 M⁻¹ s⁻¹. Also, the 50% inhibitory concentration (IC50) with TIGIT [9] was 1.5 nM.

B5: TIGIT-30-43 (Fc fusion)
chain: EVQLVESGGGLVQAGGSLRLSCAASGFTFSTSWMGWFRQAPGKERELVAARNSGGNTNYADSVKGRFTISADNAKNTVYLQMNSLKPEDTAVYYCAADVWYGSTWRNWGQGTQVTVSSGGGGS[in this place human IgG1 Fc with C220S (EU numbers)]
notes: VHH-Fc
In experiment [1], B5 returned an IC50 of 2.32 nM. The Kd in experiment [2] and in [3] was 44 nM in each case.

B6: TIGIT-31-26 (VHH-Fc) (Fc fusion)
chain: EVQLVESGGGLVQPGGSLRLSCAASGFTFDRSWMGWFRQAPGKERELVAAITSGGSTYYADSVKGRFTISADNSKNTAYLQMNSLKPEDTAVYYCAADVWYGSTWRNWGQGTLVTVSSGGGGS[in this place human IgG1 Fc with C220S (EU numbers)]
Molecule B6 gave an ELISA with TIGIT [7] of 5.1. In the experiment with TIGIT [8], this molecule gave a Kd of 19 nM, a koff of 0.0036 s⁻¹ and a kon of 190000 M⁻¹ s⁻¹. In the experiment with TIGIT [9], the half-inhibitory concentration (IC50) is 8.2 nM.

B7: TIGIT-31-08 (Fc fusion)
chain: EVQLVESGGGLVQPGGSLRLSCAASGFTFSTSWMGWFRQAPGKERELVAARNSGGNTNYADSVKGRFTISADNSKNTAYLQMNSLKPEDTAVYYCAADVWYGSTWRNWGQGTLVTVSSGGGGS[in this place human IgG1 Fc with C220S (EU numbers)]
notes: VHH-Fc; also called 31-8; TIGIT-31-8
With B7, in experiment [1], the IC50 came out at 3.92 nM. Also, the Kd in experiment [2] and in [3] was 45 nM in each case.

B8: TIGIT-31-32 (VHH-Fc) (Fc fusion)
chain: EVQLVESGGGLVQPGGSLRLSCAASGFTFSTSWMGWFRQAPGKERELVAAMTSGGGTNYADSVKGRFTISADNSKNTAYLQMNSLKPEDTAVYYCAADVWYGSTWRNWGQGTLVTVSSGGGGS[in this place human IgG1 Fc with C220S (EU numbers)]
The molecule B8 showed an ELISA with TIGIT [7] of 8. Besides, in the experiment with TIGIT [8], binding was put at a Kd of 27 nM, the koff was 0.015 s⁻¹ and the kon worked out at 560000 M⁻¹ s⁻¹. Also, the IC50 with TIGIT [9] turned out to be 2.9 nM.

B9: TIGIT-31-26 (Fc fusion)
chain: EVQLVESGGGLVQPGGSLRLSCAASGFTFDRSWMGWFRQAPGKERELVAAITSGGSTYYADSVKGRFTISADNSKNTAYLQMNSLKPEDTAVYYCAADVWYGSTWRNWGQGTLVTVSSGGGGS[in this place human IgG1 Fc with C220S (EU numbers)]
notes: VHH-Fc
In turn, B9 registered an IC50 in experiment [1] of 8.2 nM. In addition, the dissociation constant (Kd) in experiment [2] and in experiment [3] was 19 nM in each case.

B10: TIGIT-31-06 (Fc fusion)
chain: EVQLVESGGGLVQPGGSLRLSCAASGFTFSTSWMGWFRQAPGKERELVASITSGGSTYYADSVKGRFTISADNSKNTAYLQMNSLKPEDTAVYYCAADVWYGSTWRNWGQGTLVTVSSGGGGS[in this place human IgG1 Fc with C220S (EU numbers)]
notes: VHH-Fc; also called 31-6; TIGIT-31-6
In turn, B10 returned an IC50 in experiment [1] of 4 nM. Further, the Kd in experiment [2] and in experiment [3] was 14 nM each time.

B11: TIGIT-31-06 (VHH-Fc) (Fc fusion)
chain: EVQLVESGGGLVQPGGSLRLSCAASGFTFSTSWMGWFRQAPGKERELVASITSGGSTYYADSVKGRFTISADNSKNTAYLQMNSLKPEDTAVYYCAADVWYGSTWRNWGQGTLVTVSSGGGGS[in this place human IgG1 Fc with C220S (EU numbers)]
notes: also called TIGIT-31-6; 31-6
On to B11, for which the ELISA with TIGIT [7] turned out to be 9.6. In the experiment with TIGIT [8], this molecule came in with a Kd of 14 nM, an off-rate (koff) of 0.0035 s⁻¹ and a kon of 240000 M⁻¹ s⁻¹. The same molecule showed an IC50 with TIGIT [9] of 4 nM.

B12: TIGIT-31-01 (Fc fusion)
chain: EVQLVESGGGLVQPGGSLRLSCAASGFTFDRSWMGWFRQAPGKEREVVASITSGGSTYYADSVKGRFTISADNSKNTAYLQMNSLKPEDTAVYYCAADVWYGSTWRNWGQGTLVTVSSGGGGS[in this place human IgG1 Fc with C220S (EU numbers)]
notes: VHH-Fc; also called 31-1; TIGIT-31-1
In turn, B12 returned an IC50 in [1] of 17.9 nM. In addition, the Kd in [2] and in experiment [3] was 12 nM throughout.

B13: TIGIT-31-08 (VHH-Fc) (Fc fusion)
chain: EVQLVESGGGLVQPGGSLRLSCAASGFTFSTSWMGWFRQAPGKERELVAARNSGGNTNYADSVKGRFTISADNSKNTAYLQMNSLKPEDTAVYYCAADVWYGSTWRNWGQGTLVTVSSGGGGS[in this place human IgG1 Fc with C220S (EU numbers)]
notes: also called TIGIT-31-8; 31-8
Molecule B13 had an ELISA in the experiment with TIGIT [7] of 12.7. In the experiment with TIGIT [8], binding was put at a Kd of 45 nM, the koff is 0.017 s⁻¹ and the kon was 380000 M⁻¹ s⁻¹. Moreover, the half-inhibitory concentration (IC50) with TIGIT [9] was determined as 3.9 nM.

B14: TIGIT-31-32 (Fc fusion)
chain: EVQLVESGGGLVQPGGSLRLSCAASGFTFSTSWMGWFRQAPGKERELVAAMTSGGGTNYADSVKGRFTISADNSKNTAYLQMNSLKPEDTAVYYCAADVWYGSTWRNWGQGTLVTVSSGGGGS[in this place human IgG1 Fc with C220S (EU numbers)]
notes: VHH-Fc
In the case of B14, in experiment [1], the IC50 stood at 2.85 nM. In addition, the Kd in experiment [2] and in [3] was 27 nM in each case.

B15: TIGIT-29-07 (Fc fusion)
chain: EVQLVESGGGLVQAGGSLRLSCAASGSIFSNYAMGWFRQAPGKEREFVATISRGGTRTNYADSVKGRFTISADNAKNTVYLQMNSLKPEDTAVYYCAAAAWTIYAYNYWGQGTQVTVSSGGGGS[in this place human IgG1 Fc with C220S (EU numbers)]
notes: VHH-Fc; also called 29-7; TIGIT-29-7
Molecule B15 showed an IC50 in [1] of 9.24 nM. Also, the Kd in experiment [2] and in experiment [3] was 41 nM in each case.

B16: TIGIT-29-10 (Fc fusion)
chain: EVQLVESGGGLVQAGGSLRLSCAASGRTFSNYGMGWFRQAPGKEREFVSGISGSGGRTSYADSVKGRFTISADNAKNTVYLQMNSLKPEDTAVYYCAANLWYPVDRLNTGFNYWGQGTQVTVSSGGGGS[in this place human IgG1 Fc with C220S (EU numbers)]
notes: VHH-Fc
For B16, the IC50 in [1] was 17.6 nM. For the same molecule, in [3], binding was put at a Kd of 32 nM.

B17: TIGIT-29-10 VHH-Fc (Fc fusion)
chain: EVQLVESGGGLVQAGGSLRLSCAASGRTFSNYGMGWFRQAPGKEREFVSGISGSGGRTSYADSVKGRFTISADNAKNTVYLQMNSLKPEDTAVYYCAANLWYPVDRLNTGFNYWGQGTQVTVSSGGGGS[in this place human IgG1 Fc with C220S (EU numbers)]
B17: in the experiment with TIGIT [4], the ELISA came out at 5. Besides, in the experiment with TIGIT [5], binding was characterised by a dissociation constant (Kd) of 32 nM, the koff was 0.0049 s⁻¹ and the kon was 150000 M⁻¹ s⁻¹. For the same molecule, the IC50 with TIGIT [6] turned out to be 17.7 nM.
